Molecular target: T1, KDM2B Fbox-LRR region (residues 1059–1336) (UniProt Q8NHM5 1059-1336)
T1 sequence (looked up): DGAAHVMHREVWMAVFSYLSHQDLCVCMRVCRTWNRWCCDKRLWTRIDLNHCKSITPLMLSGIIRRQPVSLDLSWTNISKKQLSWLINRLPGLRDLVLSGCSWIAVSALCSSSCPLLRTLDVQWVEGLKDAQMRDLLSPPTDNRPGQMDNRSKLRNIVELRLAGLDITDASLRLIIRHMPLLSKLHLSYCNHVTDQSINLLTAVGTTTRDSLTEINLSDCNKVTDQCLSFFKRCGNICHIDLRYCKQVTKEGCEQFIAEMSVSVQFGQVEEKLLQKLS
Test: AUC

B1: SKP1 ([…]) (natural protein)
chain: not shown
stoichiometry N: 1
